The supplement of paper PMC10126150
Values marked as one replicate rest on one cluster of the flow cell; about a third of the high ones do not repeat.

Test system: ATP
Experiment: switch fluorescence ratio, 500 uM ATP over buffer (Cy3 cluster intensity, sum of 5 cycles each) (fold (ratio)); higher = stronger signal-on switching upon ATP binding; sequences stand for … in TCGTCGGCAGCGTCAGATGTGTATAAGAGACAGTTTTTTTTTTTTTTTTTTTTTTTTT…TC
Details: aptamer strand: ATP DNA aptamer (quencher-CACCTGGGGGAGTATTGCGGAGGAAGG + anchor), 100 nM annealed; ATP concentration: 500 uM; one replicate
In short: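 Per cluster, summed Cy3 intensity from the target cycles was divided by that from the buffer cycles to give the fluorescence ratio, then averaged per switch-domain sequence. Clusters outside 100-1000 RFU were excluded. The Cy3-labelled switching-strand clusters, on a modified Illumina MiSeq flow-cell, were annealed to 100 nM quencher-labelled ATP aptamer and imaged in selection buffer, then after 15 min with 500 uM ATP at 22 °C, for five cycles with NaOH stripping and re-annealing between them.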
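Note: ATP exposure 15 min at 22 °C before imaging.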

Sequence | switch fluorescence ratio
GGGAGCGCTC | 0.996
CCTAGACACC | 1.01
GATGATCCGT | 1
ATCTATCTAC | 1.06
CTGATGATTG | 1
CTTGTTGCGG | 1.02
ATCCTGGGTA | 0.998
GTAATCTAGA | 1.02
GTGGAGCCTC | 1.05
TGATCAATCT | 1.03
GGGCGGTTAA | 1
CATCTTGTGT | 1
ATTTAATTAG | 0.972
AAATGCTTGT | 0.95
CAAACTCTTT | 0.993
GTCCTGTTAA | 1
AACGGGCTCA | 1.02
GATAGTGGAC | 1.03
GCGGTTATGG | 0.972
GCGTGGTGGG | 1.05
CCATTGACCA | 1.1
GTTTTATCCA | 0.977
TGTTCAACAC | 1

Sequence | switch fluorescence ratio
ACTCGCTGAT | 1.19
ATTAATTCAG | 0.952
ATCGGCTATG | 1
AGATCATTC | 0.969
TCAAGCTGCG | 1.01
CATGGGCTGT | 1.01
GCGTGTACCT | 1.05
GGTACTGTGA | 1.05
CCTAGCGCAT | 3.56
CCGTAAACT | 3.26
TTTACTTTCT | 1.03
ACTAAAGTCA | 1.06
CAGTACGAAC | 1.35
TATGCTAGGC | 1.06
CTGGGAGCTC | 1.02
GGCTTACTGA | 1.02
GGCCCTTCTG | 1
ATCCTCAAAA | 1.92
GAGCATTTGG | 0.954
TCACAGGCTA | 1.05
GTATGCTACC | 1.22
AGCGCTACGG | 1.05
TTGTGTAG | 0.994

Sequence | switch fluorescence ratio
ACCTCTTTAA | 0.96
TGGGAGACTA | 1.02
TCAGCCAGCG | 1.06
CTGTACGTC | 0.969
AGTATTACGA | 1.03
CACGCGTGAT | 0.965
GGAAATGCCC | 1.03
TGTCGCTCCA | 1
TACTCGCCGA | 1.04
ATCTCATGCT | 0.988
TCGGACGGCT | 0.936
TAGGTGTCGT | 0.997
GCGTTAGACT | 1.04
ACCCATCGTT | 0.992
ACGAAGAGT | 1.01
CGTTCGTACA | 1.1
GCCATTTATC | 1.01
TGGCTGCGAA | 1.04
CGTTACACGC | 1.02
TACGTCACTT | 1.65
CCTGACCAGG | 1.53
GTAGAGTAGA | 0.995
CTCAAGCTTG | 0.952

Sequence | switch fluorescence ratio
CCTCAACATA | 3.37
ATGTGCATGC | 0.968
AACGTTGAGG | 0.986
CCCACGTAT | 1.33
ACAAGGCAAT | 1.27
TGATGCGCCC | 0.994
GCAGGGG | 1.2
ATGATTGTTT | 1.02
TTAGTTACAG | 1.01
CTTACATTC | 1.04
CGAGTATCGT | 0.969
GTATTTGA | 0.947
GTGGGATCGG | 0.993
GAGTAGCCGC | 1.07
CGGGATAAGG | 1.01
CTTGTGTCCT | 1.02
TGTTTTGC | 1
GCACAGCCGG | 1.01
CCTTAGACCT | 1.27
GGTACGGCTG | 0.981
TCAGCGCACT | 1.16
GGGGAGAGCT | 0.957
GCGTAAGGTC | 1.04

Sequence | switch fluorescence ratio
CCACAGACCG | 1.18
GAGAATATG | 0.973
GCCTAGCTCG | 1.04
TTTGACTAAA | 1.01
CACCAGCCGG | 1.01
CTTTGAGGA | 1.01
GGGGTGCTCG | 1
AACTATCCT | 0.996
GTTCCAGTTG | 1.04
TCCAACGATT | 1.06
TGGGAATTAC | 1.05
GTTTACAAGA | 1.02
GACTTGCATC | 1.19
TACCGCCAAT | 2.28
ACATGTTCTT | 1.05
TGTGACAGAG | 0.974
CGCTTGAAG | 0.97
GTTTGGCAG | 1.01
TACTAGGTTG | 1.06
GGGATTCATC | 1
ATAAAGTCAG | 0.984
GGAAAAATGG | 0.977
AGACAGGTAG | 1.02

Sequence | switch fluorescence ratio
AGTTGGGCTG | 1.05
TCATTTAACC | 1.09
TCATAATCGA | 0.975
CCCAGGTCTA | 1.8
CCCATTTACC | 1.1
TTTGCTATCG | 0.945
ATCAACATGC | 1.06
GCTGCGTGTG | 1
GGTGGTCATT | 0.985
TCTTGGAGTG | 0.971
CTGTAGCCG | 0.826
AAGGTAGTTC | 1.04
ACGTAGCGGT | 2.48
ATACCGTTAC | 1.61
ATGGGGAATC | 0.983
AAATACTTTA | 1.01
TAAACCAGGG | 1.87
CAGAGCTAAG | 1.1
TCTTATTTC | 0.977
CAAGAGTAAG | 0.999
ACATCGCTGG | 1.09
TTTGTTTCTC | 0.992
GTGTCAGGAA | 0.966

Sequence | switch fluorescence ratio
AAGATTCTGT | 1
GGCATAGGAG | 1.04
TGGAGCTTG | 1.03
GATCTCTAGT | 0.999
GCCACTAGGA | 1.03
AGATGTAGAA | 0.982
CCTCGCCTGG | 1.84
CAGGACATCG | 1.08
TGAGCTGAGA | 0.98
CATTCGAGCT | 0.969
GTTGAGAAGT | 0.969
CTCCAGAATT | 0.993
TTGAGTCGG | 0.991
ATGCGGATAA | 0.997
TAATGGATAT | 0.996
CTGCACACTT | 1.13
TATAGCGCG | 0.971
GTAGCCGAGG | 1.05
GGCCTACTGT | 1.02
GCTGTTTGTC | 0.989
